# Assay results: PubChem BioAssay (Tox21)
# Values joined by “and” are separate entries in the source; they are usually repeats but may differ in a detail not shown here. Equal entries are not always repeated. This list was built around the results that the source calls inconclusive (neither active nor inactive); the mix of calls is not that of the screen. For some assays here: A potency beside an inconclusive call is a rough fit, not a confirmed value. A structure can be active in one record and inactive in another. Active and inactive are the calls of the source. Unless noted, the call rests on the fitted dose curve; in most records, active means well fitted curve in the direction sought with a large enough effect in the repeat runs; inconclusive means weak or mixed curves; inactive means no such curve, though single readings can be large; an effect the other way counts as inactive or inconclusive.
# Tests used:
# [1] = qHTS assay to identify small molecule antagonists of the retinoic acid receptor (RAR) signaling pathway (AID 1159552; further: nearly all actives have a fitted effect of over 50% in size); conditions: C3RL4 RARE luciferase reporter, retinol-stimulated, 6 h; series mostly up to 92.4 µM
# In short: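 Antagonism of retinol-induced RARE reporter activity was measured in C3RL4 cells. Exposure to compounds and 1 uM final retinol lasted 6 hr at 37 C, with luminescence as endpoint.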
# [2] = qHTS assay to identify small molecule agonists of the retinoic acid receptor (RAR) signaling pathway (AID 1159553); conditions: C3RL4 RARE luciferase reporter, agonist, 6 h; activation: at 73.3 µM (top of the series) unless noted; on activation: on the % scale 0 is the no-effect control and ±100 the full control effect
# In short: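 C3RL4 RARE-luciferase cells were seeded at 1,000/well and grown overnight at 37 C, then exposed to compounds for 6 hr at 37 C, 5% CO2. Luciferase reagent was added and luminescence was read after 30 min at room temperature.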
# [3] = qHTS assay to identify small molecule agonists of the constitutive androstane receptor (CAR) signaling pathway - cell viability counter screen (AID 1224836); conditions: HepG2-CYP2B6-hCAR viability, CellTiter-Fluor, 23 h, PK11195 added to every well; series mostly up to 92.4 µM; further: nearly all actives have a fitted effect of over 45% in size
# In short: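 Double-stable HepG2 hepatoma cells (hCAR plus CYP2B6-2.2kb) are treated for 23 h at 37 C with test compounds in 15-point concentration series. PK11195 at 0.75 uM final is co-added. Cell viability is quantified by CellTiter-Fluor.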
# [4] = target: Nuclear receptor subfamily 1 group I member 3 (Homo sapiens) (UniProt Q14994); experiment: qHTS assay to identify small molecule agonists of the constitutive androstane receptor (CAR) signaling pathway (AID 1224839); conditions: HepG2 hCAR CYP2B6-luciferase, agonist mode, 24 h; series mostly up to 92.4 µM; further: nearly all actives have a fitted effect of over 15% in size
# Chain of UniProt Q14994 (Q14994 whole entry, looked up): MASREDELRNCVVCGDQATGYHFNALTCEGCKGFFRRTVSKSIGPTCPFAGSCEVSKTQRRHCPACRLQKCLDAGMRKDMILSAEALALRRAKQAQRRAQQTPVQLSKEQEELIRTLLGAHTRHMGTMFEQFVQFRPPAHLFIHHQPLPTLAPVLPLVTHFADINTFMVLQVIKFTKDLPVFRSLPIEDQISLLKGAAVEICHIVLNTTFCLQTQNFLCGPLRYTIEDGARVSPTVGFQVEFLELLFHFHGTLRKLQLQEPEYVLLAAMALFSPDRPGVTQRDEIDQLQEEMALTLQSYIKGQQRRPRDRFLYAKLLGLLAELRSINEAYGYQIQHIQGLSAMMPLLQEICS
# In short: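 Readout: firefly luciferase luminescence via ONE-Glo. System: HepG2 double-stable for hCAR and CYP2B6-2.2kb. Conditions: 15-point compound titration, PK11195 at 0.75 uM final, 24 h incubation.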
# [5] = qHTS assay to identify small molecule agonists of the hypoxia (HIF-1) signaling pathway - cell viability counter screen (AID 1224844; calls by dose curve; further: nearly all actives have a fitted effect of over 50% in size); conditions: HRE-bla ME-180 viability, CellTiter-Glo luminescence, 17 h; series mostly up to 76.8 µM
# In short: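 HRE-bla ME-180 cells, 2,000/well in 0.5% dialyzed FBS medium, treated 17 h at 37C with compounds. Viability read in the same wells as the bla reporter, by CellTiter-Glo luminescence after 30 min at room temperature.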
# [6] = qHTS assay to identify small molecule antagonists of the estrogen related receptor (ERR) signaling pathway from Tox21 library - cell viability counter screen (AID 1224834); conditions: ERR reporter cells viability, CellTiter-Fluor, 17.5 h; series mostly up to 92.4 µM; further: nearly all actives have a fitted effect of over 30% in size
# In short: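 ERR reporter cells, 2,000 per well, rested 6 h, then exposed to compound in DMSO for 17.5 hours at 37 C. Viability read as fluorescence after 30 min with CellTiter-Fluor.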
# [7] = qHTS assay to identify small molecule antagonists of the estrogen related receptor signaling pathway with the pleiotropic PPARgamma coactivator (PGC) from Tox21 10K library - cell viability counter screen (AID 1224840; active means well fitted cell-killing curve with a large enough effect in the repeat runs, not every such curve was filed as active; inconclusive means weak or mixed curves, or effect the other way; inactive means no such curve, though single readings can be large or run the other way; further: nearly all actives have a fitted effect of over 40% in size); conditions: PGC/ERR reporter cells viability, CellTiter-Fluor, 17.5 h; series mostly up to 92.4 µM
# In short: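 PGC/ERR cells (2,000/well) plated 6 h, then compound-treated for 17.5 h at 37 C. Viability measured by CellTiter-Fluor fluorescence after 30 min at 37 C, multiplexed with the pathway assay.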
# [8] = target: Thyrotropin receptor (Homo sapiens) (UniProt P16473); experiment: qHTS assay to identify small molecule agonists of the thyroid stimulating hormone receptor (TSHR) signaling pathway (AID 1224843; calls by dose curve; further: nearly all actives have a fitted effect of over 45% in size; on activation: on the % scale 0 is the no-effect control and ±100 the full control effect); conditions: TSHR-HEK293 cells, cAMP HTRF, agonist mode, 30 min; activation: at 92.4 µM (top of the series) unless noted
# Chain of UniProt P16473 (P16473 whole entry, looked up): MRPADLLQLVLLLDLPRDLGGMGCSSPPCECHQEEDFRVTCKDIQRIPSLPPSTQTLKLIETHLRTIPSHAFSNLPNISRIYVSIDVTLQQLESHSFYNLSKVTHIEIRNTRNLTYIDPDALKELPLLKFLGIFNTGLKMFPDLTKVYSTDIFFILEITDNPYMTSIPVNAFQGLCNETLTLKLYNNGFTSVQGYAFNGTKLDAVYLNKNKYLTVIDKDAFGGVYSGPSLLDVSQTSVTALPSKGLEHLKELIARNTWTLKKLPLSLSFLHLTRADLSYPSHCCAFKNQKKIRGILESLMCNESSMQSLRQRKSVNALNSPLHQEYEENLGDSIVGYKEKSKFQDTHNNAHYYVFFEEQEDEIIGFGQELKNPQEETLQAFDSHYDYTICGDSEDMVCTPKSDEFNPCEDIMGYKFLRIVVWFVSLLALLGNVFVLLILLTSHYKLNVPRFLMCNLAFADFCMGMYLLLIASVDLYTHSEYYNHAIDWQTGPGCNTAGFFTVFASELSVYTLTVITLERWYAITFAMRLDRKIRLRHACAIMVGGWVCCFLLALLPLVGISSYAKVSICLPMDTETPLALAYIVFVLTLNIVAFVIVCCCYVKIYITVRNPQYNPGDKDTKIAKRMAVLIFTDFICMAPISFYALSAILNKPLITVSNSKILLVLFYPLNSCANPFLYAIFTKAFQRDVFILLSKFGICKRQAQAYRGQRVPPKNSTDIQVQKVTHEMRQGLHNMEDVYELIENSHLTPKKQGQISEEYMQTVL
# In short: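 TSHR-expressing HEK293 cells (800 per well) were exposed to compounds for 30 min at room temperature. cAMP was then detected by HTRF competition with cAMP-d2 and anti-cAMP cryptate, read after 1 h at room temperature. Fifteen concentrations, triplicate.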
# [9] = qHTS assay to identify small molecule antagonists of the constitutive androstane receptor (CAR) signaling pathway - cell viability counter screen (AID 1224837); conditions: HepG2-CYP2B6-hCAR viability, CellTiter-Fluor, 23 h, co-treated with 50 nM CITCO; series mostly up to 92.4 µM; further: nearly all actives have a fitted effect of over 45% in size
# In short: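 HepG2 cells stably carrying hCAR and CYP2B6-2.2kb reporter, stimulated with 50 nM CITCO and compounds at 15 concentrations for 23 h at 37 C. Viability measured by CellTiter-Fluor fluorescence.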
# [10] = target: Nuclear receptor subfamily 1 group I member 3 (Homo sapiens) (UniProt Q14994); experiment: qHTS assay to identify small molecule antagonists of the constitutive androstane receptor (CAR) signaling pathway (AID 1224838); conditions: HepG2-CYP2B6-hCAR luciferase, CITCO-stimulated, 24 h; series mostly up to 92.4 µM; further: nearly all actives have a fitted effect of over 40% in size
# In short: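 HepG2 cells stably carrying hCAR and a CYP2B6-2.2kb luciferase reporter, seeded 4 hrs before compound (15 concentrations). Stimulated with 50 nM CITCO for 24 hr at 37 C. ONE-Glo luminescence read after 30 min at room temperature.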
# [11] = qHTS assay to identify small molecule antagonists of the estrogen related receptor signaling pathway with the pleiotropic PPARgamma coactivator (PGC) from Tox21 10K library (AID 1224841; call rule not given here; further: actives are mostly falling curves and most rising ones were filed inactive; nearly all actives have a fitted effect of over 50% in size); conditions: PGC/ERR reporter cell line, ONE-Glo luciferase, 18 h; series mostly up to 92.4 µM
# In short: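 PGC/ERR cell line, 2,000 cells/well, pre-incubated 6 hours at 37 C, then exposed to compounds for 18 hours at 37 C; luciferase read with One-Glo luminescence after 30 min at room temperature.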
# [12] = qHTS assay to identify small molecule antagonists of the estrogen related receptor (ERR) signaling pathway - cell viability counter screen (AID 1224818); conditions: ERR reporter cell line viability counter screen; series mostly up to 92.2 µM
# In short: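 ERR cells, 2,000 per well, compound added after 6 h and incubated 17.5 h at 37 C. Viability read by CellTiter-Fluor fluorescence after a further 30 min at 37 C.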
# [13] = test system: estrogen-related receptor alpha (ERRalpha) with PGC-1alpha coactivator, human; experiment: qHTS assay to identify small molecule antagonists of the estrogen related receptor signaling pathway with the pleiotropic PPARgamma coactivator (PGC) (AID 1224821; calls by dose curve; further: nearly all actives have a fitted effect of over 50% in size); conditions: ERR/PGC reporter cell line, luciferase, antagonist mode; series mostly up to 92.2 µM
# In short: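 Quantitative HTS for antagonism: PGC/ERR cells received compounds after 6 h attachment and were incubated 18 h at 37 C, with luminescence (One-Glo) as the endpoint.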
# [14] = qHTS assay to identify small molecule antagonists of the estrogen related receptor signaling pathway with the pleiotropic PPARgamma coactivator (PGC) cell viability counter screen (AID 1224822); conditions: ERR/PGC reporter cell line viability counter screen; series mostly up to 46.1 µM
# In short: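 PGC/ERR cells rested 6 h, then compound-treated 17.5 h at 37 C. CellTiter-Fluor added for 30 min at 37 C, viability measured by fluorescence intensity.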
# Potency means the concentration at half of the fitted maximal effect; tags describe the fitted curve by direction and shape or compound fluorescence and quenching.
compound,measurement,setting,value
O=C(Nc1ccccc1SSc1ccccc1NC(=O)c1ccccc1)c1ccccc1,Potency,[1],active: 15.4 µM
same,Potency,[2],"inconclusive: 7.74 µM [inhibitor, full curve] and inconclusive: 15.4 µM [inhibitor, full curve]"
same,Potency,[3],"inconclusive: 21.8 µM [cytotoxic, full curve] and inconclusive: 27.3 µM [cytotoxic, full curve]"
same,Potency,[4],"inconclusive: 30.6 µM [activator, partial curve, poor fit]"
same,Potency,[5],active: 15.6 µM and active: 21.9 µM
O=C(O)c1ccc2c(c1)C(=O)OC2=O,Potency,[1],"inconclusive: 19.6 µM [inhibitor, partial curve, poor fit]"
same,Potency,[2],inactive
COC(=O)C1=C(C)NC(C)=C(C(=O)OCC(C)C)C1c1ccccc1[N+](=O)[O-] (centres undefined),Potency,[1],active: 48.6 µM
same,Potency,[2],"inconclusive: 77 µM [inhibitor, single point]"
same,Potency,[6],active: 21.7 µM and active: 29.8 µM
same,Potency,[3],"inconclusive: 61.1 µM [cytotoxic, single point]"
same,Potency,[4],"inconclusive: 34.4 µM [activator, partial curve] and inconclusive: 26.6 µM [activator, partial curve]"
same,Potency,[7],active: 27.3 µM
same,activation,[8],inconclusive: 28.8%
same,Potency,[5],"active: 49 µM and inconclusive: 8.49 µM [cytotoxic, full curve]"
CCCCc1oc2ccc(NS(C)(=O)=O)cc2c1C(=O)c1ccc(OCCCN(CCCC)CCCC)cc1,Potency,[1],active: 16.8 µM
same,Potency,[2],"inconclusive: 23.7 µM [inhibitor, partial curve]"
same,Potency,[6],active: 21.1 µM
same,Potency,[3],"inconclusive: 33.5 µM [cytotoxic, single point]"
same,Potency,[9],"inconclusive: 33.5 µM [cytotoxic, single point]"
same,Potency,[10],"inconclusive: 33.5 µM [inhibitor, single point]"
same,Potency,[8],inactive
CCCCCCCC/C=C\CCCCCCCCOCCO,Potency,[1],"inconclusive: 89.1 µM [inhibitor, single point]"
same,Potency,[2],"inconclusive: 89.1 µM [inhibitor, single point]"
same,Potency,[6],active: 35.5 µM
same,Potency,[3],active: 25.1 µM
same,Potency,[9],active: 31.6 µM
same,Potency,[10],"inconclusive: 89.1 µM [inhibitor, single point]"
same,Potency,[8],"inconclusive: 31.6 µM [inhibitor, full curve]"
same,Potency,[5],active: 28.4 µM
CC[C@@]1(O)C(=O)OCc2c1cc1n(c2=O)Cc2c-1nc1ccccc1c2/C=N/OC(C)(C)C,Potency,[1],active: 0.119 µM
same,Potency,[2],"inconclusive: 9.44 µM [inhibitor, partial curve]"
same,Potency,[6],"inconclusive: 0.298 µM [cytotoxic, full curve]"
same,Potency,[3],"inconclusive: 0.237 µM [cytotoxic, full curve]"
same,Potency,[9],"inconclusive: 0.237 µM [cytotoxic, full curve]"
same,Potency,[11],active: 4.73 µM
same,Potency,[5],"inconclusive: 19 µM [cytotoxic, partial curve]"
C[C@@H]1CC(=O)NN=C1c1ccc(NN=C(C#N)C#N)cc1,Potency,[1],"inconclusive: 33.5 µM [inhibitor, single point]"
same,Potency,[2],"inconclusive: 4.73 µM [activator] and inconclusive: 3.76 µM [activator, full curve]"
same,Potency,[6],active: 18.8 µM and active: 13.3 µM
same,Potency,[3],active: 11.9 µM
same,Potency,[8],"inconclusive: 1.06 µM [activator, full curve] and active: 841 nM"
CC(C)(C)c1cc(/C=C2\SC(=N)NC2=O)cc(C(C)(C)C)c1O,Potency,[1],"inconclusive: 48.6 µM [inhibitor, partial curve]"
same,Potency,[2],inactive
same,Potency,[8],inconclusive: 7.7 µM [activator]
O=C(Nc1ccccc1)c1cc(Cl)ccc1O,Potency,[1],inactive
same,Potency,[2],inconclusive: 2.73 µM [activator]
same,Potency,[6],active: 15.4 µM
same,Potency,[9],"inconclusive: 27.3 µM [cytotoxic, full curve]"
CC(=O)N1CCN(c2ccc(OC[C@H]3CO[C@](Cn4ccnc4)(c4ccc(Cl)cc4Cl)O3)cc2)CC1,Potency,[1],"inconclusive: 68.6 µM [inhibitor, single point]"
same,Potency,[2],"inconclusive: 77 µM [inhibitor, single point]"
same,Potency,[12],inconclusive: 19.6 µM [cytotoxic]
same,Potency,[13],active: 29.8 µM
same,Potency,[14],inconclusive: 23.7 µM [cytotoxic]
same,Potency,[3],active: 48.6 µM
same,Potency,[4],"inconclusive: 15.4 µM [activator, partial curve]"
same,Potency,[7],active: 24.3 µM
same,activation,[8],inconclusive: -62.3%
same,Potency,[5],active: 49 µM
